# Laboratory results published in PubChem BioAssay AID1347055 (National Center for Advancing Translational Sciences (NCATS), 2019).
# The whole screen tested about 54,000 compounds, of which about 120 (0.22%) were called active. Inconclusive results, whose numbers are uncertain, are shown with a selection of clear calls. Calls follow the shape of the dose curve; as a rule, active = well fitted inhibition curve with a large enough effect; inconclusive = small, poorly fitted or top-dose-only effect, or effect the other way; inactive = flat fitted curve, though single readings scatter. Potencies of inconclusive entries are left out as doubtful fits.
# Target: Fumarate hydratase, mitochondrial (Homo sapiens) (UniProt P07954)
# Chain of UniProt P07954 (P07954 whole entry, looked up): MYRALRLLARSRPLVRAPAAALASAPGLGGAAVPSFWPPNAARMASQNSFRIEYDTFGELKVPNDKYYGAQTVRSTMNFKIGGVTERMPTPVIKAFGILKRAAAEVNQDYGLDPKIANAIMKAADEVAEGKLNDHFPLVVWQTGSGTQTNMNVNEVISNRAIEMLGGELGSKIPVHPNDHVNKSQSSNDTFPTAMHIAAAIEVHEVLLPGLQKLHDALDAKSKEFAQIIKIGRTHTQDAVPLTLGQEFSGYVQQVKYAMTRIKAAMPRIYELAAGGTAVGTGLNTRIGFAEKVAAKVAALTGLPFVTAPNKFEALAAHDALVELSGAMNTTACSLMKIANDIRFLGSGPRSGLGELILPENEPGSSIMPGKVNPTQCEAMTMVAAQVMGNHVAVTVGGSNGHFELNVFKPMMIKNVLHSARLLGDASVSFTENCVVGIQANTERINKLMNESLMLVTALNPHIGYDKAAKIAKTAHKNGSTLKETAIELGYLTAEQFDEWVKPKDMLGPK
# Experiment: Identification of activators of human fumarate hydratase by quantitative high-throughput screening; also: the screen sought activators but most active calls are inhibition curves; nearly all actives have a fitted effect of over 45% in size
# Conditions: FH coupled MDH/diaphorase resazurin fluorescence, 15 min; activity change, negative = inhibition: at 79.9 µM (top of the series)
# % is scaled to controls: 0 for no effect and ±100 for the full control effect; potency is read from the fitted curve at half-maximal effect; tags tell the direction and shape of the fitted curve.
Compound,Potency,"activity change, negative = inhibition"
O=[N+]([O-])c1ccc(C(c2sc3nc(-c4ccco4)nn3c2O)N2CCN(c3cccc(Cl)c3)CC2)cc1 (configuration not stated),"inconclusive [inhibitor, single point]",
CCCOc1ccc(-c2nc3ccc(Br)cc3c(=O)o2)cc1,inactive,
CCOC(=O)C1CCN(C(=O)c2ccc3c(c2)sc2nc(-c4ccc(OC)cc4)cn23)CC1,inactive,
CCOCCCNC(=O)c1ccc(Cn2c(=O)c3cccn3c3cccnc32)cc1,inactive,
CCOC(=O)N1CCN(c2ncc3c(n2)CC(c2ccc(Cl)cc2)CC3=O)CC1 (configuration not stated),"inconclusive [inhibitor, single point]",
CCOc1ccc(NC(=O)Nc2cc3c(cc2N2CCCCC2)n(C)c(=O)n3C)cc1,inactive,
C=CCc1cccc2cc(-c3nc4ccc(C(=O)O)cc4[nH]3)c(=O)oc12,active: 7.08 µM,
CCc1ccc(NC(=O)C2CCN(S(=O)(=O)c3cccc(-c4noc(C)n4)c3)CC2)cc1,"inconclusive [inhibitor, partial curve, poor fit]",
CC(=O)c1ccc(NC(=O)CC2Nc3cc(C)c(C)cc3NC2=O)cc1 (configuration not stated),inactive,
CCOc1ccc(Nc2nc(C)c(NC(=O)c3cccc(F)c3)c(Nc3ccc(OCC)cc3)n2)cc1,"inconclusive [inhibitor, single point]",
CCOCCCn1c(SCC(=O)Nc2ccc(CC)cc2)nc2ccccc2c1=O,"inconclusive [inhibitor, single point]",
O=S(=O)(c1ccc(-c2csc(=Nc3ccc(F)cc3)n2CCCCCCO)cc1)N1CCCC1,"inconclusive [inhibitor, partial curve, poor fit]",
Cc1ccc(Nc2c(-c3cccnc3)nc3ccc(Cl)cn23)cc1,"inconclusive [inhibitor, partial curve]",
COc1ccc2cc(CCNS(=O)(=O)c3ccc(C)cc3)c(=O)[nH]c2c1,"inconclusive [inhibitor, single point]",
CN(Cc1nccs1)c1ncnc2ccc(-c3ccc4c(c3)OCO4)cc12,inactive,
COc1ccc(CCC(=O)c2c(O)cc(O[C@@H]3O[C@H](CO)[C@@H](O)[C@H](O)[C@@H]3O[C@@H]3O[C@@H](C)[C@H](O)[C@@H](O)[C@@H]3O)cc2O)cc1O,inactive,
CC1=C(C(=O)Nc2ccccc2)C(c2cc(Br)ccc2F)n2ncc(C(=O)Nc3ccccc3)c2N1 (configuration not stated),"inconclusive [inhibitor, partial curve, poor fit]",
COc1ccc(CNC(=O)c2cc3c(=O)n(C)c4ccccc4c3n2C)c(OC)c1,"inconclusive [inhibitor, partial curve, poor fit]",
O=C(COc1ccc(Cl)cc1)NCC(c1ccco1)S(=O)(=O)c1ccc(Cl)cc1 (configuration not stated),,inconclusive: -54.8% [inhibitor]
Cc1cc(F)ccc1NC(=O)c1ccc2nc(Cc3ccccc3)oc2c1,"inconclusive [inhibitor, single point]",
O=C(CN1C(=O)COc2ccc(S(=O)(=O)N3CCCCCC3)cc21)N1CCN(c2cccc(C(F)(F)F)c2)CC1,"inconclusive [inhibitor, partial curve, poor fit]",

Compound,Potency,"activity change, negative = inhibition"
CCC1=Nc2cc(C(=O)NCc3ccc(C)cc3)ccc2Sc2ccc(C)cc21,"inconclusive [inhibitor, partial curve]",
CCC(C)C(=O)O[C@@H]1[C@@H](O)[C@@H](O[C@H]2O[C@H](CO)[C@@H](O)[C@H](O)[C@H]2O)O[C@H](CO)[C@H]1O (some centres not stated),inactive,
Cc1c(-c2ccccc2)n(-c2ccccc2O)c2nc3c(c(=O)n(C)c(=O)n3C)n12,"inconclusive [inhibitor, single point]",
Cc1cc(C)cc(C(=O)Nc2nnc3n2CCS3)c1,"inconclusive [activator, partial curve, poor fit]",
CCOC(=O)c1ccc(NC(=O)CSc2nccn2Cc2ccc(OC)cc2)cc1,,inconclusive: -43.9% [inhibitor]
CC1(C)CC[C@]2(C(=O)O[C@@H]3O[C@H](CO)[C@@H](O)[C@H](O)[C@H]3O)CC[C@]3(C)C(=CCC4[C@@]5(C)C[C@@H](O)[C@H](O)[C@](C)(C=O)C5CC[C@]43C)[C@@H]2[C@@H]1O (some centres not stated),inactive,
COC(=O)c1ccc(Cn2c(SCC(=O)NCc3ccccc3)nc3ccccc32)cc1,"inconclusive [inhibitor, single point]",
Cc1cc(C)c2c(=O)cc(CSc3nnc(-c4ccccc4)n3C)[nH]c2c1,inactive,
CC(C)(C)c1cc(C(C)(C)C)c2oc(=O)c(-c3nc4ccc(C(=O)O)cc4[nH]3)cc2c1,active: 28.2 µM,
C=C1CCC[C@]2(C)C[C@]3(O)OC(=O)C(C)=C3C[C@@H]12,inactive,
CC(=O)Nc1ccc(NS(=O)(=O)c2ccc3[nH]c4c(c3c2)CCCCC4)cc1,"inconclusive [inhibitor, single point]",
O=C1NC(=O)/C(=C\c2ccc3nccc(-c4ccncc4)c3c2)S1,active: 25.1 µM,
CN(Cc1ccccc1)C(=O)c1cccc(NC(=O)c2nsc3ccccc23)c1,"inconclusive [inhibitor, partial curve, poor fit]",
COc1ccc(CNc2oc(/C=C/c3cccc(OC)c3)nc2C#N)cc1,"inconclusive [inhibitor, partial curve]",
O=C(O)c1cccc(CN2C(=O)/C(=C(\c3ccccc3)c3ccc(Cl)cc3)c3ccccc32)c1,"inconclusive [inhibitor, single point]",
OCCC#Cc1nc(-c2ccc(F)cc2)c(-c2ccncc2)n1CCCc1ccccc1,"inconclusive [inhibitor, partial curve, poor fit]",
COc1ccc2cc(-c3cc(-c4cc(Cl)cc(Cl)c4)nn3C(C)c3ccc(C(=O)NCCC(=O)O)cc3)ccc2c1 (configuration not stated),"inconclusive [inhibitor, single point]",
O=C(O)Cc1ccc(O)c(O)c1,"inconclusive [inhibitor, single point]",
COc1cc(Cl)c(NC(=O)CN(C)S(=O)(=O)c2ccc3c(c2)CCCC(=O)N3)c(OC)c1,inactive,
CCOc1ccc(CNC(=O)C2=Cc3cc(Br)ccc3OC2)cc1OC,"inconclusive [inhibitor, single point]",
CN(C(=O)Cn1ncc2c1-c1ccccc1OC2)c1ccc(Br)cc1,"inconclusive [inhibitor, single point]",

Compound,Potency,"activity change, negative = inhibition"
CCc1ccc(-n2nc(C)c3c(C(=O)N4CCN(c5cccc(Cl)c5)CC4)cc(C)nc32)cc1,"inconclusive [inhibitor, partial curve, poor fit]",
C/C(=C\Cc1c(O)c(Cl)c(C)c(C=O)c1O)CC/C=C(\C)[C@H]1CC(=O)C(C)(C)O1,inactive,
COc1ccc(S(=O)(=O)NCCc2sc(-c3cccc(C)c3)nc2C)cc1,"inconclusive [inhibitor, single point]",
COc1ccc(CCNc2nc3ccccc3c3nc(-c4cccc(C)c4)nn23)cc1OC,"inconclusive [inhibitor, partial curve, poor fit]",
CC1=CC(=O)c2ccccc2C1=O,"inconclusive [inhibitor, partial curve]",
COc1ccc(-c2cn3c(n2)sc2cc(C(=O)Nc4ccc(F)cc4Cl)ccc23)cc1,"inconclusive [inhibitor, partial curve, poor fit]",
COc1ccc2c(c1)O[C@H](O[C@@H]1O[C@H](CO)[C@@H](O)[C@H](O)[C@H]1O)C(=O)N2,inactive,
COc1ccc(CNc2ncnc3c2cnn3-c2ccc(C)c(C)c2)cc1,inactive,
NCc1ccc(OCCCc2sc(-c3ccc4c(c3)/C(=N/Nc3nc5ccccc5s3)CCC4)nc2C(=O)O)cc1,inactive,
Cc1oc2c(c(C)cc3oc(=O)c(CC(=O)NCc4ccccc4)c(C)c32)c1C,inactive,
COc1ccc(C2Oc3nc(SC)nnc3-c3ccccc3N2C(C)=O)cc1 (configuration not stated),inactive,
CCOC(=O)c1cccc(NC(=O)CCc2c(C)nn(-c3ccc(N4CCOCC4)nn3)c2C)c1,"inconclusive [activator, single point]",
CCN(C(=O)CSc1nc2n[nH]c(C)c2c(=N)n1-c1cccc(OC)c1)c1cccc(C)c1,"inconclusive [inhibitor, partial curve]",
Cc1ccc(CNc2cc(C)nc3nc(-c4cccc(C)c4)nn23)cc1,"inconclusive [inhibitor, partial curve, poor fit]",
CN(C(=O)CSc1nc2ccc(NC(=O)COc3ccccc3)cc2s1)c1ccccc1,inactive,
C/C=C/c1ccc(O)c(OC)c1,"inconclusive [inhibitor, partial curve, poor fit]",
Cc1ccccc1CNC(=O)Nc1ccc2c(c1)N(C)C(=O)c1ccccc1S2,"inconclusive [inhibitor, partial curve, poor fit]",
CCOC(=O)c1c(NC(=O)c2ccc(OC)c(OC)c2)sc2c1CCCCC2,"inconclusive [inhibitor, single point]",
CCN(CC)c1cc(C)c2cc(NC(=O)c3ccc(F)cc3Cl)ccc2n1,inactive,
O=C(CC1N=C2c3ccccc3N=C(SCC(=O)Nc3ccc(F)cc3)N2C1=O)NCc1cccs1 (configuration not stated),,inconclusive: -39.4% [inhibitor]
